Article PMC12136788
Some of the results follow.

B1: 45016481_45016601_1758_CDS_ENSMUSG00000036097_ENSMUST00000096053|mouse|control|control (ssRNA)
RNA: GGGAGUUCUACAGUCCGACGAUCUGAAUGCAAAGAUCCCCCAGAAUUUUUCCCUGACGAUUCAUUAGAAACAGCCUUAAUAGUCUUUGCUCUGUGUUCCUUGUGUUUGGAGGAUUCUGUAGAAUGCCCAGAACGUUCUUUUGACAACAGAGGAUUGAGCAUCA
B2: chr9:121621712:121621713:+_ENSMUSG00000032526_ENSMUST00000035113|mus_mus|FALSE|FALSE (ssRNA)
RNA: GGGAGUUCUACAGUCCGACGAUCCUUUGUGAGACUGCUUGUGUUGGCGUCUGCGAUGGUAGCUAAAUAAAUGAGAUUUCUAUGUAACACAUGCUGAUACUGGACGCACUCGUUCGCUCGGCCCUUAUUCUGAUACUCCACGAUCAACAGAGGAUUGAGCAUCA
B3: chr19:16212804:16212805:+_ENSG00000167460_ENST00000300933|hu_mus|hu_hu_hu_mus_False|28_28 (ssRNA)
RNA: GGGAGUUCUACAGUCCGACGAUCAACAAUUCUGGAGUGAAGGAAAGAUGUAACAUGGAACAGCAUUAAAGCUCAGUCAGAAGGCACAUGGGCAACAAUGAUCACCCCCCAAGCAUUGCUUGGAAUGCUUAAAGACAAUCUGUUCAACAGAGGAUUGAGCAUCA
B4: chr2:64323713:64323714:-_ENSG00000197329_ENST00000358912|hu_hu|FALSE|FALSE (ssRNA)
RNA: GGGAGUUCUACAGUCCGACGAUCGCUUUGUACUGACUGUGUAUCAGAAUUACUUUGACUUCCAGGAACCGUGUCAGUUACUACAAAAUCAAUGGGGCUUUCAGUCGACCGGCCAAUCUGAAACAUAUCGGUGUUGCUGUCAUGCAACAGAGGAUUGAGCAUCA
B5: 113976164_113977287_983_CDS_ENSMUSG00000040383_ENSMUST00000043160|mouse|control|control (ssRNA)
RNA: GGGAGUUCUACAGUCCGACGAUCGUGAACAAGACUGGAGAGGUAGCAGUGAACCAGAAGGUGGGAGUCAUCCAGGAUGGUGUUAAACCAGCGCCUCGUGGGGAGUAGAGCCUCUAGAUCAAUCAUCAGUUCGAUGAAUCUUUCCAACAGAGGAUUGAGCAUCA
B6: chr3:138219032:138219033:+_ENSMUSG00000028156_ENSMUST00000029803|mus_mus|motif|central (ssRNA)
RNA: GGGAGUUCUACAGUCCGACGAUCUGUUACACGAGGAAAAAAACAAAAGCAAAACAAAUGAAAAACUGAAAUCAGAAUCACGGAUGUUAUCAAGGAGGGAAGCAAAUAAAUUAAAUCUAGCAGCCAUCAGCAAGAGGACAGCAACAACAGAGGAUUGAGCAUCA
B7: chr14:72968675:72968676:-_ENSMUSG00000033487_ENSMUST00000089017|mus_mus|motif|central (ssRNA)
RNA: GGGAGUUCUACAGUCCGACGAUCGUACAGGACCUCUUCACUAAAAUCACUUACACCAUAGUCAUUUUUGGCUGAUAAUCGGAAUUUACAACCCAUUGCUGGUGAGAGUUUGGUAAUUUUAAAUUGCUUCUGUGAGCCCAUGUACAACAGAGGAUUGAGCAUCA
B8: chr1:160278953:160278954:-_ENSG00000122218_ENST00000241704|hu_mus|motif|central (ssRNA)
RNA: GGGAGUUCUACAGUCCGACGAUCCUGGGAGUCUGCGUCUUUGGGGAUGGUGUAUAGGUCGUAGGUACUGUUCUCGGGAUUGCUUGCUCUGGUGCAGAGCAGCACUGCGUUUUCUGCUGGAUUGUAUGACAUGUUGAAUACUGGCAACAGAGGAUUGAGCAUCA
B9: chr16:20405944:20405945:-_ENSMUSG00000022822_ENSMUST00000134962|mus_mus|FALSE|FALSE (ssRNA)
RNA: GGGAGUUCUACAGUCCGACGAUCAUGCACAGAGAUAUCCAGGGAAAGCCCCUCAACUCGGGCUGCUGUUUCGAGAGCAUCUUGGCAUUCCAACGAUCUUGUUCUCCGGAACCUGGGUUCCUCGGGGUCUCUGUGUUGCCCUGGCAACAGAGGAUUGAGCAUCA
B10: chr22:19452774:19452775:-_ENSG00000070010_ENST00000399523|hu_hu|motif|central (ssRNA)
RNA: GGGAGUUCUACAGUCCGACGAUCCUUUUCAUUAUAGUUGAUGGCAAUCACAUCCCCGGUGGUCAGACAGGCAAAGUUCCGGAGUGCGUUUUCUAAUACGGCUUUGGGGUUGGUGAUGUCCAGGAAGUCAGGGCUCUGAGGUUGCAACAGAGGAUUGAGCAUCA
B11: chr7:54825262:54825263:-_ENSG00000132432_ENST00000352861|hu_hu|hu_hu_hu_mus_False|38_58 (ssRNA)
RNA: GGGAGUUCUACAGUCCGACGAUCCUGCCGGCUGGGCUCCACAAACUGCAUUACCUGAUCCAUGUUUGUUGGAUGGCACACCUAAAACGUAGAGACAACGUAGCACUGAGAGAACCGAGCCCAACGGAACCGGAAGCUGGCAACCAACAGAGGAUUGAGCAUCA
B12: 88183167_88183488_3190_3pUTR_ENSMUSG00000005621_ENSMUST00000107353|mouse|control|control (ssRNA)
RNA: GGGAGUUCUACAGUCCGACGAUCGGGUUGUGAAAGGACUGUUCACACUGCCGGCAUGGGUACCGCUUCAGCGUCCGACCGUGGCUCUUUUUCAUGUGAGACACGUAGCUCUCUCGAUCAGGAACCCACUCUUGGCACUCCUGACAACAGAGGAUUGAGCAUCA
B13: chr4:25749455:25749456:-_ENSG00000091490_ENST00000264868|hu_hu|hu_hu_hu_mus_False|8_98 (ssRNA)
RNA: GGGAGUUCUACAGUCCGACGAUCGCACUAUGACCUCCCCUAGAAAACACAGGGGGAAAAAAUGUAAACCAAUGUACAAUGUUAUCGCCUUCCCUGUGUGUGGAGUGUUUGUCUCAAGGCUCCUUCUUGCCUUAUAAUUUGGGACAACAGAGGAUUGAGCAUCA
B14: chr1:36770067:36770068:+_ENSG00000054118_ENST00000354618|hu_mus|motif|central (ssRNA)
RNA: GGGAGUUCUACAGUCCGACGAUCUUAAGAGUCAAAGUUGCCCAAAUUAAAAUCUUUACACUAAUAUUACUAUAUAUCCCCGGAAAAGAAGAAAAAGAAAAAAGGAUUUCUUAAUAAAACUCAGGACAGGAAGAGACUGAAAACCAACAGAGGAUUGAGCAUCA

What follows are binders tested against T1, UNK ZnF1-3 (human, UniProt Q9C0B0 31-174) (assay: nsRBNS (natural sequence RNA bind-n-seq); RBNS binding buffer (assumed for nsRBNS): 25 mM Tris pH 7.5, 150 mM KCl, 3 mM MgCl2, 0.01% Triton X-100, 500 ug/ml BSA, 20 U/ml SUPERase-In, 4 C; UNK is unkempt and MSI1 is Musashi-1; names of the RNAs are library labels; protein concentration not given here; high values mean tight binding).
T1 sequence: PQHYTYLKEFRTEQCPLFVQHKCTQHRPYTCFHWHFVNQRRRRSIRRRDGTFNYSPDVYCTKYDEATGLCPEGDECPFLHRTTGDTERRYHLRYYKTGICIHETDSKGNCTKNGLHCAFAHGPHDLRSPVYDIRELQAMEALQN

Row | Binder | binding signal [enrichment R]
1 | B1 | 0.813
2 | B2 | 0.74
3 | B3 | 1.28
4 | B4 | 0.548
5 | B5 | 1.75
6 | B6 | 2.45
7 | B7 | 1.29
8 | B8 | 0.568
9 | B9 | 0.605
10 | B10 | 1.25
11 | B11 | 1.15
12 | B12 | 0.739
13 | B13 | 1.07
14 | B14 | 2.35
